# Some of the results follow.
# B1: FGFR2-Fc (protein)
# chain: MVNVTDAISSGDDEDDTDGAEDFVSENSNNKRAPYWTNTEKMEKRLHAVPAANTVKFRCPAGGNPMPTMRWLKNGKEFKQEHRIGGYKVRNQHWSLIMESVVPSDKGNYTCVVENEYGSINHTYHLDVVERSPHRPILQAGLPANASTVVGGDVEFVCKVYSDAQPHIQWIKHVEKNGSKYGPDGLPYLKVLKHSGINSSNAEVLALFNVTEADAGEYICKVSNYIGQANQSAWLTVLPKQQAPGREKEITASPDYLETRPLEQKLISEEDLAANDILDYKDDDDKV
# Experiments:
# Experiment in all cases: glycan array binding signal (z-score within array); higher = stronger binding
# Conditions in all cases: glycan notation: IUPAC condensed, linker removed
# Fuc(a1-2)Gal = target: Fuc(a1-2)Gal
# How it was run: (§1)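 Arrays were curated from the Consortium for Functional Glycomics database, 3228 in total, and kept only where the protein sequence was available. Binding is expressed as a within-array Z-score. This score was averaged across arrays of the same protein sequence at different concentrations or buffers and across linkers, and negative values can be read as non-binding.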
# Fuc(a1-2)Gal(b1-3)GalNAc = target: Fuc(a1-2)Gal(b1-3)GalNAc
# How it was run: as §1
# [1] = target: Fuc(a1-2)Gal(b1-3)GalNAc(a1-3)[Fuc(a1-2)]Gal(b1-4)Glc
# How it was run: as §1
# [2] = target: Fuc(a1-2)Gal(b1-3)GalNAc(a1-3)[Fuc(a1-2)]Gal(b1-4)GlcNAc
# How it was run: as §1
# [3] = target: Fuc(a1-2)Gal(b1-3)GalNAc(b1-3)Gal
# How it was run: as §1
# [4] = target: Fuc(a1-2)Gal(b1-3)GalNAc(b1-3)Gal(a1-4)Gal(b1-4)Glc
# How it was run: as §1
# [5] = target: Fuc(a1-2)Gal(b1-3)GalNAc(b1-4)[Neu5Ac(a2-3)]Gal(b1-4)Glc
# How it was run: as §1
# Fuc(a1-2)Gal(b1-3)GlcNAc = target: Fuc(a1-2)Gal(b1-3)GlcNAc
# How it was run: as §1
# [6] = target: Fuc(a1-2)Gal(b1-3)GlcNAc(b1-2)Man(a1-3)[Fuc(a1-2)Gal(b1-3)GlcNAc(b1-2)Man(a1-6)]Man(b1-4)GlcNAc(b1-4)GlcNAc
# How it was run: as §1
# [7] = target: Fuc(a1-2)Gal(b1-3)GlcNAc(b1-2)Man(a1-3)[Fuc(a1-2)Gal(b1-3)GlcNAc(b1-2)Man(a1-6)]Man(b1-4)GlcNAc(b1-4)[Fuc(a1-6)]GlcNAc
# How it was run: as §1
# [8] = target: Fuc(a1-2)Gal(b1-3)GlcNAc(b1-3)Gal(b1-4)Glc
# How it was run: as §1
# [9] = target: Fuc(a1-2)Gal(b1-3)GlcNAc(b1-3)GalNAc
# How it was run: as §1
# [10] = target: Fuc(a1-2)Gal(b1-3)GlcNAc(b1-3)[Fuc(a1-2)Gal(b1-3)GlcNAc(b1-6)]GalNAc
# How it was run: as §1
# [11] = target: Fuc(a1-2)Gal(b1-3)GlcNAc(b1-3)[Gal(b1-4)GlcNAc(b1-6)]Gal(b1-4)Glc
# How it was run: as §1
# [12] = target: Fuc(a1-2)Gal(b1-3)GlcNAc(b1-3)[Neu5Ac(a2-6)Gal(b1-4)GlcNAc(b1-6)]Gal(b1-4)Glc
# How it was run: as §1
# [13] = target: Fuc(a1-2)Gal(b1-3)GlcNAc6S
# How it was run: as §1
# [14] = target: Fuc(a1-2)Gal(b1-3)[Fuc(a1-4)]GlcNAc
# How it was run: as §1
# [15] = target: Fuc(a1-2)Gal(b1-3)[Fuc(a1-4)]GlcNAc(b1-2)Man(a1-3)[Fuc(a1-2)Gal(b1-3)[Fuc(a1-4)]GlcNAc(b1-2)Man(a1-3)]Man(b1-4)GlcNAc(b1-4)GlcNAc
# How it was run: as §1
# [16] = target: Fuc(a1-2)Gal(b1-3)[Fuc(a1-4)]GlcNAc(b1-2)Man(a1-3)[Fuc(a1-2)Gal(b1-3)[Fuc(a1-4)]GlcNAc(b1-2)Man(a1-6)]Man(b1-4)GlcNAc(b1-4)[Fuc(a1-6)]GlcNAc(b1-4)[Fuc(a1-6)]GlcNAc
# How it was run: as §1
# [17] = target: Fuc(a1-2)Gal(b1-3)[Fuc(a1-4)]GlcNAc(b1-3)[Fuc(a1-3)[Gal(b1-4)]GlcNAc(b1-6)]Gal(b1-4)Glc
# How it was run: as §1
# [18] = target: Fuc(a1-2)Gal(b1-3)[Fuc(a1-4)]GlcNAc(b1-3)[Gal(b1-4)GlcNAc(b1-6)]Gal(b1-4)Glc
# How it was run: as §1
# Fuc(a1-2)Gal(b1-4)Glc = target: Fuc(a1-2)Gal(b1-4)Glc
# How it was run: as §1
# Fuc(a1-2)Gal(b1-4)Glc6S = target: Fuc(a1-2)Gal(b1-4)Glc6S
# How it was run: as §1
# Fuc(a1-2)Gal(b1-4)GlcNAc = target: Fuc(a1-2)Gal(b1-4)GlcNAc
# How it was run: as §1
# [19] = target: Fuc(a1-2)Gal(b1-4)GlcNAc(b1-2)Man
# How it was run: as §1
# [20] = target: Fuc(a1-2)Gal(b1-4)GlcNAc(b1-2)Man(a1-3)[Fuc(a1-2)Gal(b1-4)GlcNAc(b1-2)Man(a1-6)]Man(b1-4)GlcNAc(b1-4)GlcNAc
# How it was run: as §1
# [21] = target: Fuc(a1-2)Gal(b1-4)GlcNAc(b1-2)Man(a1-3)[Fuc(a1-2)Gal(b1-4)GlcNAc(b1-2)Man(a1-6)]Man(b1-4)GlcNAc(b1-4)[Fuc(a1-6)]GlcNAc
# How it was run: as §1
# [22] = target: Fuc(a1-2)Gal(b1-4)GlcNAc(b1-2)[Fuc(a1-2)Gal(b1-4)GlcNAc(b1-4)]Man(a1-3)[Fuc(a1-2)Gal(b1-4)GlcNAc(b1-2)Man(a1-6)]Man(b1-4)GlcNAc(b1-4)GlcNAc
# How it was run: as §1
# [23] = target: Fuc(a1-2)Gal(b1-4)GlcNAc(b1-3)Gal(b1-4)GlcNAc
# How it was run: as §1
# [24] = target: Fuc(a1-2)Gal(b1-4)GlcNAc(b1-3)Gal(b1-4)GlcNAc(b1-2)Man(a1-3)[Fuc(a1-2)Gal(b1-4)GlcNAc(b1-3)Gal(b1-4)GlcNAc(b1-2)Man(a1-6)]Man(b1-4)GlcNAc(b1-4)GlcNAc
# How it was run: as §1
binder,measurement,setting,value
B1,glycan array binding signal (z-score),Fuc(a1-2)Gal,-0.045
same,glycan array binding signal (z-score),Fuc(a1-2)Gal(b1-3)GalNAc,-0.061
same,glycan array binding signal (z-score),[1],-0.02
same,glycan array binding signal (z-score),[2],-0.172
same,glycan array binding signal (z-score),[3],-0.249
same,glycan array binding signal (z-score),[4],-0.351
same,glycan array binding signal (z-score),[5],-0.072
same,glycan array binding signal (z-score),Fuc(a1-2)Gal(b1-3)GlcNAc,-0.144
same,glycan array binding signal (z-score),[6],-0.319
same,glycan array binding signal (z-score),[7],0.195
same,glycan array binding signal (z-score),[8],-0.099
same,glycan array binding signal (z-score),[9],-0.369
same,glycan array binding signal (z-score),[10],0.041
same,glycan array binding signal (z-score),[11],0.277
same,glycan array binding signal (z-score),[12],-0.436
same,glycan array binding signal (z-score),[13],0.087
same,glycan array binding signal (z-score),[14],-0.345
same,glycan array binding signal (z-score),[15],-0.195
same,glycan array binding signal (z-score),[16],0.4
same,glycan array binding signal (z-score),[17],0.044
same,glycan array binding signal (z-score),[18],-0.452
same,glycan array binding signal (z-score),Fuc(a1-2)Gal(b1-4)Glc,-0.612
same,glycan array binding signal (z-score),Fuc(a1-2)Gal(b1-4)Glc6S,0.039
same,glycan array binding signal (z-score),Fuc(a1-2)Gal(b1-4)GlcNAc,0.369
same,glycan array binding signal (z-score),[19],0.252
same,glycan array binding signal (z-score),[20],-0.068
same,glycan array binding signal (z-score),[21],0.141
same,glycan array binding signal (z-score),[22],0.308
same,glycan array binding signal (z-score),[23],-0.25
same,glycan array binding signal (z-score),[24],0.021

# — the supplement of paper PMC8728848
